# ± gives the standard deviation of the averaged measurements. Over roughly 33,000 sequences, “E-score (dimensionless, -0.5 to 0.5)” has its median near -0.046; the highest 2% begin near 0.36. This is one part of the list.
# Tested on: T1, SpTbr T-box DNA-binding domain (GST fusion)
# T1 sequence: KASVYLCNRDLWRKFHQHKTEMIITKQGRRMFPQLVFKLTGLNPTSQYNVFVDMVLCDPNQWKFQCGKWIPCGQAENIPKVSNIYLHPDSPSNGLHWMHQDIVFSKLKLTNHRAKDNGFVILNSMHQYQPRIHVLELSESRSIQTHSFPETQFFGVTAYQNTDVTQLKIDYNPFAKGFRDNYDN
# Test: PBM E-score of 8-mer (E-score (dimensionless, -0.5 to 0.5)); Tbr is Tbrain of the sea star Patiria miniata (Pm) or the sea urchin Strongylocentrotus purpuratus (Sp); higher = stronger binding preference; most listed sequences are background and not binding sites
# Conditions: the construct has about 5 more residues each side
# In short: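 Each ungapped 8-mer received an enrichment E-score from the Universal PBM Analysis Suite, averaged over duplicate arrays. The proteins were Tbr T-box DNA-binding domains, covering the whole T-box plus about five flanking residues, fused to GST and expressed in BL21 E. coli at 20 °C before glutathione affinity purification. Universal Agilent oligonucleotide arrays were made double-stranded by primer extension and incubated with 200 nM protein in PBS (pH 7.5). The arrays were then scanned and quantified, and every 8-mer was scored from probe intensities.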
row,Sequence,PBM E-score of 8-mer
1,AGCCAAAC,0.0092 ± 0.017
2,CGAATCTC,0.0908 ± 0.025
3,CTGCGTCC,-0.247 ± 0.021
4,CAATCGGG,-0.184 ± 0.035
5,GGCTTTAA,-0.149 ± 0.043
6,GAGATCTC,0.0968 ± 0.0089
7,ATCCTGTA,-0.104 ± 0.036
8,AGCAAATG,-0.212 ± 0.0035
9,TAGAGACA,-0.121 ± 0.0034
10,GGCATTAC,-0.177 ± 0.019
11,AGATGAGC,-0.3 ± 0.013
12,TATGTAGA,-0.0966 ± 0.018
13,CCGAGCTA,-0.0175 ± 0.052
14,CACGAGGA,-0.0363 ± 0.019
15,CATGCAAG,-0.0547 ± 0.029
16,ATGGTGGC,0.274 ± 0.028
17,GGAACGGA,0.0688 ± 0.073
18,AAAAGTGA,0.169 ± 0.069
19,GAGTCATA,-0.107 ± 0.043
20,ATATTTAC,-0.134 ± 0.11
21,GCACGCAA,0.0125 ± 0.0044
22,CGCCTAGC,0.229 ± 0.014

row,Sequence,PBM E-score of 8-mer
1,CGCCTACA,0.162 ± 0.066
2,AGTAACAA,0.169 ± 0.066
3,CTACAGAG,-0.1919 ± 0.0009
4,GGAATATA,-0.18 ± 0.0099
5,GAAAGCCA,-0.173 ± 0.024
6,CTGTCACA,0.358 ± 0.01
7,AAAAATTA,0.00658 ± 0.092
8,ATGCGTGC,0.151 ± 0.014
9,GAATGTCC,-0.229 ± 0.039
10,AAGGATCA,-0.0804 ± 0.057
11,ATGAAGAC,-0.104 ± 0.068
12,AACTTTAA,-0.144 ± 0.031
13,TAGCTGGA,-0.0828 ± 0.039
14,CGTACGCC,-0.175 ± 0.019
15,GGGAGCTA,-0.0989 ± 0.0066
16,ATAAGGCA,-0.0753 ± 0.039
17,CTCGTGGA,-0.0626 ± 0.077
18,GAGCGTGA,0.31 ± 0.026
19,ATGAGTTG,-0.0117 ± 0.028
20,ATGTAGAA,-0.265 ± 0.042
21,AAATCGCC,0.165 ± 0.0026
22,CAATCAAG,-0.211 ± 0.016

row,Sequence,PBM E-score of 8-mer
1,CACAGTTA,0.147 ± 0.022
2,CGAAAAGA,-0.121 ± 0.043
3,TGCAAACA,0.172 ± 0.021
4,ACTAGGCG,0.0902 ± 0.068
5,CGAATCGA,0.0765 ± 0.0087
6,ATCCCGCG,0.065 ± 0.026
7,CGTTGCTC,-0.0648 ± 0.01
8,GTTGTAGA,-0.04927 ± 0.0004
9,ACGATACC,-0.0239 ± 0.049
10,CGTGTCTC,-0.0159 ± 0.01
11,AAGCAGAT,-0.124 ± 0.027
12,TGCGATAA,0.275 ± 0.013
13,CGTACACA,0.1032 ± 0.00023
14,ATGTCACC,0.323 ± 0.0098
15,CGGTAAAA,-0.0986 ± 0.035
16,GACCTGCC,0.0636 ± 0.012
17,CACTAACG,0.2548 ± 0.0015
18,CCTTCCTC,-0.0565 ± 0.11
19,GCGTGACC,0.369 ± 0.004
20,GAATATTC,0.064 ± 0.1
21,AAGCCCAA,-0.261 ± 0.094
22,CACAGAGA,0.0167 ± 0.011

row,Sequence,PBM E-score of 8-mer
1,CAATCTAG,0.0144 ± 0.083
2,CAACCGGA,-0.158 ± 0.018
3,AACGTGGC,0.27 ± 0.034
4,ACTCGGGA,-0.132 ± 0.044
5,CGATCCGC,0.00935 ± 0.013
6,AGTATTAC,-0.239 ± 0.0039
7,CCCTCAGG,-0.109 ± 0.025
8,ACTGAAAT,0.174 ± 0.038
9,ATGATGTC,-0.143 ± 0.0033
10,AGTTACTG,-0.0684 ± 0.048
11,AGAAATGG,-0.0657 ± 0.013
12,CCTGGCTA,0.00724 ± 0.0031
13,CACAAGGC,-0.114 ± 0.035
14,CAGGAGTC,-0.08397 ± 0.00014
15,TGAGCTCA,-0.137 ± 0.047
16,CACATGTG,0.315 ± 0.014
17,CATCAACA,0.146 ± 0.015
18,AGACTGGA,-0.158 ± 0.012
19,AATGTCCG,-0.174 ± 0.012
20,AAGCGAAC,-0.061 ± 0.041
21,CGCGCTCA,0.108 ± 0.01
22,ATACGACC,-0.0697 ± 0.018

row,Sequence,PBM E-score of 8-mer
1,CTGGGCTA,-0.126 ± 0.019
2,CTATTTCA,-0.0496 ± 0.03
3,CGCCAGGA,0.0592 ± 0.04
4,AGCGACGG,0.00089 ± 0.011
5,ACGAGCAG,0.0252 ± 0.069
6,AAATCATA,-0.142 ± 0.086
7,ACCGTCGT,0.234 ± 0.037
8,CATCTTCC,0.00074 ± 0.00079
9,ACATTGGC,0.166 ± 0.028
10,CACCGGAC,-0.191 ± 0.0046
11,CGGGCGAA,-0.0971 ± 0.033
12,GGGCGAAC,-0.0364 ± 0.016
13,GTCGGTTA,-0.0491 ± 0.011
14,CGGAGAGA,-0.108 ± 0.025
15,CAGGATGG,-0.207 ± 0.052
16,AGGCGAAA,0.0477 ± 0.032
17,TAGCGATA,-0.0255 ± 0.0094
18,AACCATGA,-0.102 ± 0.092
19,CAGGTTAC,0.0843 ± 0.017
20,AATGCATT,-0.119 ± 0.051
21,ATCCAACG,-0.00189 ± 0.0081
22,GACGGGAC,0.00236 ± 0.021

# Source: the supplement of paper PMC4166925
